The target of assay [1] is HsFA1a^WT in pGBKT7 (BD) (Arabidopsis thaliana) (UniProt P41151). Nature of the assay: two-hybrid; CRY1 as prey in pGADT7 (AD), HsF as bait in pGBKT7 (BD), co-transformed into yeast Y187; liquid beta-galactosidase assay with CPRG, Miller units; not detected (ND) if OD578 <0.01 after 3 h of color development.
In assay [2] the target is HsFA1b^WT in pGBKT7 (BD) (Arabidopsis thaliana) (UniProt O81821). The assay is described as above.
For assay [3], the target named is HsFA3^(K174A K177A E178A) in pGBKT7 (BD) (Arabidopsis thaliana) (UniProt Q8GYY1). Described as above.
Assay [4] concerns the target HsFA3^(K174A K177A) in pGBKT7 (BD) (Arabidopsis thaliana) (UniProt Q8GYY1). Described as above.
The target of assay [5] is HsFA4C^WT in pGBKT7 (BD) (Arabidopsis thaliana) (UniProt Q9FK72). The description is as above.
Assay [6] concerns the target T1, HsFA9^WT in pGBKT7 (BD) (Arabidopsis thaliana) (UniProt Q9LVW2).
T1 sequence: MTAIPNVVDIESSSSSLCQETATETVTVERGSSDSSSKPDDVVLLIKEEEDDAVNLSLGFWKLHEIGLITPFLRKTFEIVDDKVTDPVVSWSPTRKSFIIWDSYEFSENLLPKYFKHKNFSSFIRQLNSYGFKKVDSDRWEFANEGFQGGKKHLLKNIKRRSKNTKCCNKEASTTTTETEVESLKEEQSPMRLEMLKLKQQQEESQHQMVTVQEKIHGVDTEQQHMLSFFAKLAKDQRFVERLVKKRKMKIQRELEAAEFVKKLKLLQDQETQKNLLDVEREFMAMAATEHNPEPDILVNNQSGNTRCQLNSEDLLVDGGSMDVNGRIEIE
Described as above.

Protein sequences, listed by entry. Tags and fused reporters are not part of them. Lines headed by an entry give the natural chain unless they say otherwise; changes in a name come on top. Chains listed by the source or under a name are the forms on record and can include a tag or linker. Residues count along the entry.
UniProt P41151: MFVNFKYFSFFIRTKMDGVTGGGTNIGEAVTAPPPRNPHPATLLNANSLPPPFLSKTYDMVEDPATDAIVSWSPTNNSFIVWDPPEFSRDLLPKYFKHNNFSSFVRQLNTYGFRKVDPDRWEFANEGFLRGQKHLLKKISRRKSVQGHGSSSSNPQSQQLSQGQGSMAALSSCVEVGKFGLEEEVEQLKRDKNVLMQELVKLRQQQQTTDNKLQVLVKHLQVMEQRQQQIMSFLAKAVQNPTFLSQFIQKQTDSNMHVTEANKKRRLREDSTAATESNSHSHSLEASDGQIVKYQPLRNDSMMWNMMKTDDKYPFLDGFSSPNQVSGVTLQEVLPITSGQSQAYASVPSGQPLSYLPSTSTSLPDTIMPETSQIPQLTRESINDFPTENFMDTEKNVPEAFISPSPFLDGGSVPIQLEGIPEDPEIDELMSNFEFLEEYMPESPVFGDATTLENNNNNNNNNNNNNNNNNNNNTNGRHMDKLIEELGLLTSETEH
UniProt O81821: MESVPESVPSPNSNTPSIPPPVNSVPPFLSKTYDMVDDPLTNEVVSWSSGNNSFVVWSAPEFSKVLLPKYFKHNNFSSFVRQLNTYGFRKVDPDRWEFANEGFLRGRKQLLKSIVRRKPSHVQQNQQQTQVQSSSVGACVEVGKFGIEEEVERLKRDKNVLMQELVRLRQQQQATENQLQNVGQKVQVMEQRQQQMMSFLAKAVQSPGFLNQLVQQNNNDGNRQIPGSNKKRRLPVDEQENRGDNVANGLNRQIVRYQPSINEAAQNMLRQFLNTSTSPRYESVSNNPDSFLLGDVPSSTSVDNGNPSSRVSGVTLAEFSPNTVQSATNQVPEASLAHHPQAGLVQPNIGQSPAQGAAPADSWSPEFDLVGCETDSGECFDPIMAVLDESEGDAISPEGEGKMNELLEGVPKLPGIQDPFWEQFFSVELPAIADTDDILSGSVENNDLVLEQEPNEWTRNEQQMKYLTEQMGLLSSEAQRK
UniProt Q8GYY1: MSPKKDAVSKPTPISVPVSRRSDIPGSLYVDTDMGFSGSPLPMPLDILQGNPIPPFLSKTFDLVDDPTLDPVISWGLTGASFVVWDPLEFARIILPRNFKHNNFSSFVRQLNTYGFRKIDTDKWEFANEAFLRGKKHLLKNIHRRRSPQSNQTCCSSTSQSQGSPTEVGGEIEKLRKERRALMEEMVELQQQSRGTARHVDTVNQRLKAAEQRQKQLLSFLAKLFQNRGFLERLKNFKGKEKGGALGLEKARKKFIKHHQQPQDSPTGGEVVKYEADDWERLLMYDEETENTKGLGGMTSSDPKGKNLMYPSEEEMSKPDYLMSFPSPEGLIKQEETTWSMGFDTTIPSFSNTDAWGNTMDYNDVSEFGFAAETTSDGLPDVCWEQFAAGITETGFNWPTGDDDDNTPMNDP
HsFA3^Δ(168-228)-cYFP (Q8GYY1, form named): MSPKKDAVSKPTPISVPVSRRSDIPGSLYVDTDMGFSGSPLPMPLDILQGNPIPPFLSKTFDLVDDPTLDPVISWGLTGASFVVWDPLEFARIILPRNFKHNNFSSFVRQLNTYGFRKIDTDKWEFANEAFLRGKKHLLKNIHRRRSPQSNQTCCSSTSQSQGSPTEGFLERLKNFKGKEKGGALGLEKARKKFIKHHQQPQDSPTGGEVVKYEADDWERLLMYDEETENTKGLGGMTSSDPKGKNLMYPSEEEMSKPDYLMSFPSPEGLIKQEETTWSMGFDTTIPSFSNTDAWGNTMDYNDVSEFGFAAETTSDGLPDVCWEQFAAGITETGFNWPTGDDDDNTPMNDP
UniProt Q9FK72: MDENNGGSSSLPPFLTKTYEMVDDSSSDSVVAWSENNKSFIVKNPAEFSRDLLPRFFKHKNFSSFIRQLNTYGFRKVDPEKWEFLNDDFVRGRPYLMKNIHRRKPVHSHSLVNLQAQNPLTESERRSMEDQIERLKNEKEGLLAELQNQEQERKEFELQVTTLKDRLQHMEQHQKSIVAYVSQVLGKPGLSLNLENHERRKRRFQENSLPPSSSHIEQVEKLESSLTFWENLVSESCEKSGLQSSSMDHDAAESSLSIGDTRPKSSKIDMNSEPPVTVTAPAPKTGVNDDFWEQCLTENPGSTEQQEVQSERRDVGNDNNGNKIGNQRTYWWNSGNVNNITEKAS
UniProt Q9T0D3: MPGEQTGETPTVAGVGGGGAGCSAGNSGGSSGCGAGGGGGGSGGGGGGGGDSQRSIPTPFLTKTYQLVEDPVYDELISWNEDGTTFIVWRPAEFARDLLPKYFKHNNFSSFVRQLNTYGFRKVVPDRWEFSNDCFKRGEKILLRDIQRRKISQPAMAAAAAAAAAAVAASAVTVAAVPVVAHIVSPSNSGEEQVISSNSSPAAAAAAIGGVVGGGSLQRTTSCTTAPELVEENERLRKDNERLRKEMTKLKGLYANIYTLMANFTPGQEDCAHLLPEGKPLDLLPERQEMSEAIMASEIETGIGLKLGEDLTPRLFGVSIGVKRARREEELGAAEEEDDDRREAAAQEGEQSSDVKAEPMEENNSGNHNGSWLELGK
UniProt Q9LQM7: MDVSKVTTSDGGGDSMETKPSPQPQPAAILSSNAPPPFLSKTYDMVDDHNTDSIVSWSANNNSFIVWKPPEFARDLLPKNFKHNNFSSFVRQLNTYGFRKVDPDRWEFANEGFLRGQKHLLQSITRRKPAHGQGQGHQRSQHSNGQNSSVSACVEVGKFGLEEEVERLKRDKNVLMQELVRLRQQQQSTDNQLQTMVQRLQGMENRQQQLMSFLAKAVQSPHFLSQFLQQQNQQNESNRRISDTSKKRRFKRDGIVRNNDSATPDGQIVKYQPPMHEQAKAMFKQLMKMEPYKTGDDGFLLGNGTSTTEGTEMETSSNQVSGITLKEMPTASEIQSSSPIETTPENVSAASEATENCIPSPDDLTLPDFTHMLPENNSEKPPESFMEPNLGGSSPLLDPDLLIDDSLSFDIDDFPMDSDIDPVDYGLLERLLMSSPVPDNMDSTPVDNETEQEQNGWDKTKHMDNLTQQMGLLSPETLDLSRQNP
HsFA1d^Δ(160-220)-cYFP (Q9LQM7, form named): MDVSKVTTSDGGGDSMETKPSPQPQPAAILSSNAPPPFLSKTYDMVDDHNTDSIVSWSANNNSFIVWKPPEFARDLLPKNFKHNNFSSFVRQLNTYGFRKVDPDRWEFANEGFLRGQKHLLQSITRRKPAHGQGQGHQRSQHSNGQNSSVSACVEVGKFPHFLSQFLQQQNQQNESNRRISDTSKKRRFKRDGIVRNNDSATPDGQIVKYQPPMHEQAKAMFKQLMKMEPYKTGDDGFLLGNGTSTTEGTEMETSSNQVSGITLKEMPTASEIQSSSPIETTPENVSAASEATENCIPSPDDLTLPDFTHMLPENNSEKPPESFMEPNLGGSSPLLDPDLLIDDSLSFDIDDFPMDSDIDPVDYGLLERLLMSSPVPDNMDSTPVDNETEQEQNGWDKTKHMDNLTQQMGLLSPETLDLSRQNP
UniProt Q9LV52: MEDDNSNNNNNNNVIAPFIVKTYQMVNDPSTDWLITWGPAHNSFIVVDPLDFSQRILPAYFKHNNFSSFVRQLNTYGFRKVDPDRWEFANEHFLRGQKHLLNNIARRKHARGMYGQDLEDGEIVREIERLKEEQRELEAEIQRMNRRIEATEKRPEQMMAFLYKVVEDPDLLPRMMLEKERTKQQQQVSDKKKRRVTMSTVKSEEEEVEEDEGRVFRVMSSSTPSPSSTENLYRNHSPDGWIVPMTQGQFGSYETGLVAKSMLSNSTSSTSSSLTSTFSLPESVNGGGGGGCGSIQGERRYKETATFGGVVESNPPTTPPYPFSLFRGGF
UniProt Q43125, residues 1-508: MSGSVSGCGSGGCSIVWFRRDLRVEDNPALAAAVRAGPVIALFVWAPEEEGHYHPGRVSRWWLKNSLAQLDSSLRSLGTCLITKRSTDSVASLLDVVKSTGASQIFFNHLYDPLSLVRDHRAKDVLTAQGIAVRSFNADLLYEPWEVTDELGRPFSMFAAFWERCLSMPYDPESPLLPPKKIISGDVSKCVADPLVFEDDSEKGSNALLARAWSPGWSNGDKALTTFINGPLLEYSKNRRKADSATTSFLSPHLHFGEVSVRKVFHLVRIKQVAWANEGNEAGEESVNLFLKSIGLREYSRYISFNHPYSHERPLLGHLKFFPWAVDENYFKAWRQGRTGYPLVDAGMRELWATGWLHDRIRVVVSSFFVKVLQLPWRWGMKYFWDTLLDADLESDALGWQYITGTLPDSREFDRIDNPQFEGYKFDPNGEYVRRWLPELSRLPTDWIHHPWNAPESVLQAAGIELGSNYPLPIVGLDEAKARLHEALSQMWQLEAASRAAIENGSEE

In assay [7] the target is HsFB2b^K249E in pGBKT7 (BD) (Arabidopsis thaliana) (UniProt Q9T0D3). Described as above.
Assay [8] deals with HsFB2b^WT in pGBKT7 (BD) (Arabidopsis thaliana) (UniProt Q9T0D3). The assay is described as above.
In assay [9] the target is T2, HsFB3^WT in pGBKT7 (BD) (Arabidopsis thaliana) (UniProt O22230).
T2 sequence: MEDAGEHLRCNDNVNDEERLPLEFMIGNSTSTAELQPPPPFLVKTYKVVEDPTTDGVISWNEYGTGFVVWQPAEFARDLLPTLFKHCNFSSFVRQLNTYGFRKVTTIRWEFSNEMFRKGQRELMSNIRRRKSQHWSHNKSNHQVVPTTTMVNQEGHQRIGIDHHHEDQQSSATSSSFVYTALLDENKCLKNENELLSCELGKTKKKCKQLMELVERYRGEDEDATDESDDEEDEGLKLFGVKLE
The assay is described as above.

Assay [10] deals with HsFA1d^WT-cYFP (Arabidopsis thaliana) (UniProt Q9LQM7). Nature of the assay: split reporter; BiFC: CRY1-nYFP and HsF-cYFP (2X35S, pPZP) agroinfiltrated into N. benthamiana leaves; confocal microscopy two days after infiltration; mCherry as marker of expression.
Assay [11] concerns the target HsFA1d^Δ(160-220)-cYFP (Arabidopsis thaliana) (UniProt Q9LQM7). Described as above.
The target in assay [12] is HsFA3^WT-cYFP (Arabidopsis thaliana) (UniProt Q8GYY1). The assay is described as above.
In assay [13] the target is HsFA3^Δ(168-228)-cYFP (Arabidopsis thaliana) (UniProt Q8GYY1). The description is as above.
For assay [14], the target named is HsFB2b^WT-cYFP (Arabidopsis thaliana) (UniProt Q9T0D3). The assay is described as above.
In assay [15] the target is HsFC1^R129E-cYFP (Arabidopsis thaliana) (UniProt Q9LV52). The description is as above.
For assay [16], the target named is HsFC1^WT-cYFP (Arabidopsis thaliana) (UniProt Q9LV52). Described as above.

No constants are given. Whether binding was seen depends on the method and setting. For some of these results: In cells and extracts the contact can be indirect. Some binding calls cover weakened binding; strength is not graded here. For some of these results: Tags and fused reporters may be left off the sequences shown.

Turning to “CRY1^(PHR WT) in pGADT7 (AD) (from UniProt Q43125 1-508) (domain or fragment)”, the binding result in assay [1] is listed as “no binding”; in assay [2], “no binding”; in assay [3], “binds”; in assay [4], “no binding”; in [5] it was “no binding”; in [6], “no binding”. The binding entry in assay [7], in assay [8] and in [9] was “no binding” each time.
Take “CRY1^(PHR WT)-nYFP (from UniProt Q43125 1-508) (domain or fragment)”: the binding result in assay [10] is “binds”; in assay [11] it was “no binding”; in [12], “binds”; in assay [13] it was “no binding”; in assay [14], “no binding”; in assay [15] it was “binds”. For the same substance, in assay [16], the binding entry was “binds”.

These data come from paper PMC12753876.
